Source: US12421317B2, “Polynucleotides encoding anti-glucagon-like peptide 1 receptor (GLP1R) antagonist antibodies” (Regeneron Pharmaceuticals, Inc., priority 2020, dated 2025)

Columns and labels:
[1] = test system: GLP1R humanized mice; test: Exendin-4 induced hypoglycemia in GLP1R humanized mice (Example 5); type: in vivo; settings: for Blood glucose levels / Percent differences in blood glucose levels from Group 1: Exendin-4 challenge, antibody 25 mg/kg s.c. on Day 0, mean
Method: For the study, 35 mice were randomly divided into one group of fourteen mice and three groups of seven mice. On Day 0, the group of fourteen animals (later divided into Groups 1 and 2) were administered subcutaneously (s.c.) with a mIgG2 isotype control antibody (referred to as Isotype control, dose of 25 mg/kg), whereas the other three groups (n=7/group) were each administered s.c. (dose of 25 mg/kg) with mAb36986 (Group 3), mAb37639 (Group 4), or mAb37645 (Group 5). The next day (Day 1), the isotype control administered fourteen animals were randomly divided into two groups (Group 1 and 2) of seven mice each. At 0 minute on Day 1, animals in Group 1 were administered intraperitoneally (i.p.) with saline, whereas animals in Group 2 were administered i.p. with Exendin-4 (dose of 0.01 mg/kg). At the same time point, animals in Groups 3, 4, and 5 were administered i.p. with Exendin-4 (dose of 0.01 mg/kg). For all animals, blood glucose levels were measured with a handheld glucometer immediately before saline or Exendin-4 administration, and 15, 30, 60, and 120 minutes post administration. All animals remained in their assigned groups until the study completion on Day 67. The Exendin-4 challenge performed on Day 1 was repeated on Days 8, 22, 46, and 67. Mean±SEM of percent differences in blood glucose levels from Group 1 at each time point was calculated for each group and shown in Table 16. Statistical analyses were performed by two-way ANOVA followed by Bonferroni post-hoc tests, comparing Groups 2, 3, 4, and 5 to Group 1.

[2] = target: T1, hGLP1R-MMH (N-terminal region of human GLP1R-MMH) (Homo sapiens, UniProt P43220); test: SPR (Biacore 4000) binding of captured GLP1R mAbs to hGLP1R-MMH
T1 construct: the N-terminal region of human GLP1R-MMH (hGLP1R-MMH)
Method: (§1) The equilibrium dissociation constant (KD) for GLP1R binding to selected GLP1R monoclonal antibodies (mAbs) was determined using a real-time surface plasmon resonance biosensor using a Biacore 4000 instrument. All binding studies were performed in 10 mM HEPES, 150 mM NaCl, 3 mM EDTA, and 0.05% v/v Surfactant Tween-20, pH 7.4 (HBS-ET) running buffer at 25° C. and 37° C. The Biacore CM5 sensor chip surface was first derivatized by amine coupling with human Fc specific mouse mAb to capture different GLP1R mAbs. Different concentrations (100, 25, and 6.25 nM) of the N-terminal region of human GLP1R-MMH (hGLP1R-MMH; SEQ ID NO: 59), human GLP1R expressed with mouse IgG2a Fc (hGLP1R-mFc; SEQ ID NO: 63), an in-line fusion protein of human desA-GLP1 and GLP1R-MMH (hdesA-GLP1_GLP1R-MMH; SEQ ID NO: 62), Macaca fascicularis GLP1R-MMH (mfGLP1R-MMH; SEQ ID NO: 60) or 100 nM mouse GLP1R-MMH (mGLP1R-MMH; SEQ ID NO: 61) prepared in HBS-ET running buffer were injected over the GLP1R mAb captured surface for 150 sec at a flow rate of 30 μL/min and their dissociation in HBS-ET running buffer was monitored for 10 minutes. At the end of each cycle, the GLP1R mAb capture surface was regenerated using a 12 sec injection of 20 mM phosphoric acid.
(§2) The association rate (ka) and dissociation rate (Kd) were determined by fitting the real-time binding sensorgrams to a 1:1 binding model with mass transport limitation using Scrubber 2.0 c curve-fitting software. Binding dissociation equilibrium constant (KD) and dissociative half-life (t½) were calculated from the kinetic rates as: […]

[3] = target: T2, mGLP1R-MMH (mouse GLP1R-MMH) (Mus musculus, UniProt O35659); test: SPR (Biacore 4000) binding of captured GLP1R mAbs to mGLP1R-MMH
T2 construct: 100 nM mouse GLP1R-MMH (mGLP1R-MMH)
Method: as §1, §2

[4] = target: T3, hdesA-GLP1_GLP1R-MMH (in-line fusion protein of human desA-GLP1 and GLP1R-MMH) (Homo sapiens, UniProt P43220); test: SPR (Biacore 4000) binding of captured GLP1R mAbs to hdesA-GLP1_GLP1R-MMH
T3 construct: an in-line fusion protein of human desA-GLP1 and GLP1R-MMH (hdesA-GLP1_GLP1R-MMH)
Method: as §1, §2

[5] = test system: mfGLP1R-MMH (Macaca fascicularis GLP1R-MMH); test: SPR (Biacore 4000) binding of captured GLP1R mAbs to mfGLP1R-MMH
Method: as §1, §2

T1 sequence (P43220 with tags, fused parts or gaps): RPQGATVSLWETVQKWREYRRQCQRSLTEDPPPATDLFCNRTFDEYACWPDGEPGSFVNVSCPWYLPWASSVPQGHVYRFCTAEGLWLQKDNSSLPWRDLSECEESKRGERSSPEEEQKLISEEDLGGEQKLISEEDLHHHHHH
T3 sequence (P43220 with tags, fused parts or gaps): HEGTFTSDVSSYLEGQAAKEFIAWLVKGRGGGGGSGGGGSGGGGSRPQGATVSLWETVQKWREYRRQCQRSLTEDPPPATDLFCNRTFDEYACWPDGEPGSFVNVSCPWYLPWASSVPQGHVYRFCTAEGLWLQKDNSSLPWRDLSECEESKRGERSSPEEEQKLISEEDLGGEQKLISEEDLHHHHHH
T2 sequence (O35659 with tags, fused parts or gaps): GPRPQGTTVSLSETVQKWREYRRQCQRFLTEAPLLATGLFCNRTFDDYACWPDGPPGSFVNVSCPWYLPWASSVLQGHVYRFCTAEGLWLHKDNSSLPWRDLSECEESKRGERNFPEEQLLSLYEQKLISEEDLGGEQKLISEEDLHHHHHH

B1: mAb37639: fully human anti-GLP1R antagonist antibody; HCVR/LCVR SEQ ID NOs: 22/30; heavy/light chain 36/38 (antibody)
heavy: EVQLLESGGGVVQPGGSLRLSCVASGFTFSSYAMSWVRQAPGKGLEWVSSISGSGGSTDNADSVKGRFTISRDNSKNTLYLQMNSLRAEDTAVYYCAKDRITIFGVVLNGAFDIWGQGTMVTVSSASTKGPSVFPLAPCSRSTSESTAALGCLVKDYFPEPVTVSWNSGALTSGVHTFPAVLQSSGLYSLSSVVTVPSSSLGTKTYTCNVDHKPSNTKVDKRV[human IgG4 Fc with S228P (EU numbers) not printed]
light: DIQMTQSPSSLSASVGDRVTITCQASQDIRNYLNWYQQKPGKAPKLLIYDASNLETGVPSRFSGSGSGTDFTFTISSLQPEDIATYFCQQYDNLFTFGPGTKVDIKRTVAAPSVFIFPPSDEQLKSGTASVVCLLNNFYPREAKVQWKVDNALQSGNSQESVTEQDSKDSTYSLSSTLTLSKADYEKHKVYACEVTHQGLSSPVTKSFNRGEC
notes: fully human anti-GLP1R antagonist antibody; heavy/light chain 36/38
[1]; 25 mg/kg s.c. on Day 0, challenges on Days 1, 8, 22, 46, 67
  glucose normalizing effects during Exendin-4 challenges: glucose normalizing effects only on Days 1 and 8
[1]; Day 1, 0 min
  Blood glucose levels: 215 mg/dL
  Percent differences in blood glucose levels from Group 1: 12%
[1]; Day 1, 15 min
  Blood glucose levels: 233 mg/dL
  Percent differences in blood glucose levels from Group 1: −9%
[1]; Day 1, 30 min
  Blood glucose levels: 222 mg/dL
  Percent differences in blood glucose levels from Group 1: −13%
[1]; Day 1, 60 min
  Blood glucose levels: 226 mg/dL
  Percent differences in blood glucose levels from Group 1: −6%
[1]; Day 1, 120 min
  Blood glucose levels: 212 mg/dL
  Percent differences in blood glucose levels from Group 1: −7%
[1]; Day 8, 0 min
  Blood glucose levels: 214 mg/dL
  Percent differences in blood glucose levels from Group 1: 1%
[1]; Day 8, 15 min
  Blood glucose levels: 223 mg/dL
  Percent differences in blood glucose levels from Group 1: −13%
[1]; Day 8, 30 min
  Blood glucose levels: 216 mg/dL
  Percent differences in blood glucose levels from Group 1: −12%
[1]; Day 8, 60 min
  Blood glucose levels: 221 mg/dL
  Percent differences in blood glucose levels from Group 1: −9%
[1]; Day 8, 120 min
  Blood glucose levels: 215 mg/dL
  Percent differences in blood glucose levels from Group 1: 2%
[1]; Day 22, 0 min
  Blood glucose levels: 199 mg/dL
  Percent differences in blood glucose levels from Group 1: −5%
[1]; Day 22, 15 min
  Blood glucose levels: 216* mg/dL
  Percent differences in blood glucose levels from Group 1: −19* %
[1]; Day 22, 30 min
  Blood glucose levels: 199** mg/dL
  Percent differences in blood glucose levels from Group 1: −21* %
[1]; Day 22, 60 min
  Blood glucose levels: 188* mg/dL
  Percent differences in blood glucose levels from Group 1: −21* %
[1]; Day 22, 120 min
  Blood glucose levels: 203 mg/dL
  Percent differences in blood glucose levels from Group 1: −2%
[1]; Day 46, 0 min
  Percent differences in blood glucose levels from Group 1: 1%
[1]; Day 46, 15 min
  Blood glucose levels: 184** mg/dL
  Percent differences in blood glucose levels from Group 1: −25%
[1]; Day 46, 30 min
  Blood glucose levels: 171*** mg/dL
  Percent differences in blood glucose levels from Group 1: −32** %
[1]; Day 46, 60 min
  Blood glucose levels: 165** mg/dL
  Percent differences in blood glucose levels from Group 1: −27* %
[1]; Day 46, 120 min
  Blood glucose levels: 199 mg/dL
  Percent differences in blood glucose levels from Group 1: 7%
[1]; Day 67, 0 min
  Blood glucose levels: 196 mg/dL
  Percent differences in blood glucose levels from Group 1: 1%
[1]; Day 67, 15 min
  Blood glucose levels: 165**** mg/dL
  Percent differences in blood glucose levels from Group 1: −38** %
[1]; Day 67, 30 min
  Blood glucose levels: 146**** mg/dL
  Percent differences in blood glucose levels from Group 1: −44*** %
[1]; Day 67, 60 min
  Blood glucose levels: 149*** mg/dL
  Percent differences in blood glucose levels from Group 1: −37** %
[1]; Day 67, 120 min
  Blood glucose levels: 186 mg/dL
  Percent differences in blood glucose levels from Group 1: −18%
[2]; 25° C.
  ka: 393000 M⁻¹ s⁻¹
  kd: 0.000186 s⁻¹
[2]; 37° C.
  ka: 668000 M⁻¹ s⁻¹
  kd: 0.000422 s⁻¹
[3]; 25° C.
  ka: 269000 M⁻¹ s⁻¹
  kd: 0.00454 s⁻¹
[3]; 37° C.
  ka: 435000 M⁻¹ s⁻¹
  kd: 0.00959 s⁻¹
[4]; 25° C.
  ka: 11900 M⁻¹ s⁻¹
  kd: 0.00019 s⁻¹
[4]; 37° C.
  ka: 17100 M⁻¹ s⁻¹
  kd: 0.00127 s⁻¹
[5]; 25° C.
  ka: 137000 M⁻¹ s⁻¹
  kd: 0.000195 s⁻¹
[5]; 37° C.
  ka: 215000 M⁻¹ s⁻¹
  kd: 0.000418 s⁻¹

Marks after values point to notes of the source that are not given here.
